Laboratory results as given in patent publication US20260258107A1 (ELPISCIENCE SUZHOU BIOPHARMA, published 2026).

Experiments:
[1] = target: T1, HIS-tagged human IL-2R α-subunit (human, UniProt P01589 22-213, limits assumed); test: BLI (Octet Red 96), variant-Fc on AHC sensor, HIS-tagged IL-2Rα as analyte, 1:1 fit
T1 construct: Analyte in solution in BLI; also called CD25; not shown: HIS tag
T1 sequence (looked up): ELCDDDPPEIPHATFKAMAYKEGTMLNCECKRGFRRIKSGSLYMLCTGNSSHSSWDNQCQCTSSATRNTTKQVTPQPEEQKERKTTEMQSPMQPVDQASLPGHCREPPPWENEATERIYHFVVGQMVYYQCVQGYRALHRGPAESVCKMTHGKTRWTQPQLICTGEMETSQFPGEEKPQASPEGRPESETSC
Method: (§1) The affinity of the IL2 variants to the IL-2Rβγheterodimer and the IL-2Rα-subunit was determined by Bio-Layer Interferometry (BLI) technology (Octet Red 96 system). Briefly, the IL2 variants with a concentration of 50 nM were loaded and immobilized on an AHC (Anti-hIgG Fc Capture) sensor until the signal reached 0.6 nm. The sensors were immersed in buffer until the signal returned to baseline. Subsequently, either the HIS-tagged human IL-2R a-subunit or the HIS-tagged human IL-2Rβγheterodimer was applied to the sensors as analytes at 30° C. in kinetics buffer (PALL, USA) in concentrations ranging from 100 nM down to 3.125 nM (1:2 dilution). The following conditions were applied: 90 s for association 300 s for dissociation and 6×5 s for regeneration with regeneration solution (10 mM Glycine, pH 1.5). The curves obtained were fitted with a 1:1 binding model.

[2] = target: T2, HIS-tagged human IL-2Rβγ heterodimer (human, UniProt P14784 27-239; P31785 23-262, limits assumed); test: BLI (Octet Red 96), variant-Fc on AHC sensor, HIS-tagged IL-2Rβγ heterodimer as analyte, 1:1 fit
T2 construct: Analyte in solution in BLI; HIS-tagged; also called CD122/CD132
T2 sequence (looked up) 1: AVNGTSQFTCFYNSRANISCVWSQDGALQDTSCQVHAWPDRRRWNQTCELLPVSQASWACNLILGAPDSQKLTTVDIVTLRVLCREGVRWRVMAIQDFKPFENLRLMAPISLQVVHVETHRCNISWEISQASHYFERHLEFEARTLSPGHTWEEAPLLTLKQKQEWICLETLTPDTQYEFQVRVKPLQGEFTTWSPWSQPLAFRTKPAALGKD
T2 sequence (looked up) 2: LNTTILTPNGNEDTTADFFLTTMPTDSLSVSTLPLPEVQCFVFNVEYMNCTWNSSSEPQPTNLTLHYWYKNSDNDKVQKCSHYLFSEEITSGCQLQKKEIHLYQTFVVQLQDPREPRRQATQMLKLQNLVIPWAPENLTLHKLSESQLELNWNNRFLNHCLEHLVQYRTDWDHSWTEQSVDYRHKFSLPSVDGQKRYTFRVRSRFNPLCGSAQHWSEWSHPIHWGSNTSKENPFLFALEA
Method: as §1

[3] = target: T1, HIS-tagged human IL-2R α-subunit; test: BLI (Octet): variant-Fc captured on AHC sensor, HIS-tagged human IL2Rα (IL2R_a) as analyte
Method: as §1

[4] = target: T2, HIS-tagged human IL-2Rβγ heterodimer; test: BLI (Octet Red 96), variant-Fc on AHC sensor, HIS-tagged IL-2Rβγ heterodimer as analyte, 1:1 fit; remark: listed apart in the source
Method: as §1

[5] = target: T2, HIS-tagged human IL-2Rβγ heterodimer; test: BLI (Octet Red 96), variant-Fc on AHC sensor, HIS-tagged IL-2Rβγ heterodimer as analyte (up to 1000 nM), 1:1 fit
Method: as §1

B1: human wildtype IL2 fused to human IgG1-LALA Fc (Fc fusion)
chain: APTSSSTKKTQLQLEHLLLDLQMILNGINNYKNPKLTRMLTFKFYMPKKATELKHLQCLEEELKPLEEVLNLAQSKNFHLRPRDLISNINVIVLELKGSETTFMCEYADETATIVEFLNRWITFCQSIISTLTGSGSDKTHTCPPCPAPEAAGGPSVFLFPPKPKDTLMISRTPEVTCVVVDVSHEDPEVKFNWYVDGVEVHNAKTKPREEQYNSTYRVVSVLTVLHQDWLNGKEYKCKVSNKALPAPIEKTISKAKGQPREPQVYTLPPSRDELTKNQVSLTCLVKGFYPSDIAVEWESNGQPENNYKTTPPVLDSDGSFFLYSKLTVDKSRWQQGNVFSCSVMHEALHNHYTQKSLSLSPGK
notes: IL2 is at the N terminus of the Fc; also called IL2-WT
Kd [1]: 33.6 nM | Kd [2]: < 0.001 nM

B2: ESE01.006 fused to human IgG1-LALA Fc (Fc fusion)
chain: APTSSSTKKTQLQLEHLLLDLQMILNGINNYKNPKLTQMLTRSFYMPKKATELKHLQCLEEELKPLEVVLNLAQSKNFHLRPRDLISNINVIVLELKGSETTFMCEYADETATIVEFLNRWITFVQSIISTLTGSGS[human IgG1 Fc with changes left out here]
binding result [3]: no binding | Kd [4]: 0.44 nM

B3: ESE01.008 fused to human IgG1-LALA Fc (Fc fusion)
chain: APTSSSTKKTQLQLEHLLLDLQMILNGINNYKNPKLTEMLTFKFYMPKKATELKHLQCLEETLKPLESVLNKAQSKNFHLRPRDLISNINVIVLELKGSETTFMCEYADETATIVEFLNRWITFVQSIISTLTGSGS[human IgG1 Fc with changes left out here]
notes: Printed positions count on the mature protein: entry position = printed + 20
binding result [3]: no binding | Kd [4]: 0.0283 nM

B4: ESE01.010 fused to human IgG1-LALA Fc (Fc fusion)
chain: APTSSSTKKTQLQLEHLLLDLQMILNGINNYKNPKLTAMLTEGFYMPKKATELKHLQCLEEELKPLEEVLNLAQSKNFHLRPRDLISNINVIVLELKGSETTFMCEYADETATIVEFLNRWITFVQSIISTLTGSGS[human IgG1 Fc with changes left out here]
notes: as for B3
binding result [3]: no binding | Kd [4]: < 0.001 nM

B5: ESE01.016 fused to human IgG1-LALA Fc (Fc fusion)
chain: APTSSSTRKTQLQLEHLLLDLQMILNGINNYKNPKLTTMLTEPFYMPKKATELKHLQCLEEGLKPLEAVLNLAQSKNFHLRPRDLISNINVIVLELKGSETTFMCEYADETATIVEFLNRWITFVQSIISTLTGSGS[human IgG1 Fc with changes left out here]
notes: as for B3
Kd [4]: < 0.001 nM

B6: ESE01.017 fused to human IgG1-LALA Fc (Fc fusion)
chain: APTSSSTKKTQLQLEHLLLDLQMILNGINNYKNPKLTRMLTHQFYMPKKATELKHLQCLEEELKPLEEVLNLAQSKNFHLRPRDLISNINVIVLELKGSETTFMCEYADETATIVEFLNRWITFVQSIISTLTGSGS[human IgG1 Fc with changes left out here]
notes: as for B3
Kd [4]: 0.0156 nM

B7: ESE01.018 fused to human IgG1-LALA Fc (Fc fusion)
chain: APTSSSTKKTQLQLEHLLLDLQMILNGINNYKNPKLTDMLTQGFYMPKKATELKHLQCLEEELMPLEEVLNLAQSKNFHLRPRDLISNINVIVLELKGSETTFMCEYADETATIVEFLNRWITFVQSIISTLTGSGS[human IgG1 Fc with changes left out here]
notes: as for B3
Kd [4]: < 0.001 nM

B8: ESE01.019 fused to human IgG1-LALA Fc (Fc fusion)
chain: APTSSSTKKTQLQLEHLLLDLQMILNGINNYKNPKLTEMLTQQFYMPKEATELKHLQCLEEELKPLEEVLNLAQSKNFHLRPRDLISNINVIVLELKGSETTFMCEYADETATIVEFLNRWITFVQSIISTLTGSGS[human IgG1 Fc with changes left out here]
notes: R38E, F42Q, K43Q, K49E, C125V
Kd [4]: < 0.001 nM

B9: ESE01.020 fused to human IgG1-LALA Fc (Fc fusion)
chain: APTSSSTKKTQLQLEHLLLDLQMILNGTNNYKNPKLTEMLTFRFYMPKKATELKHLQCLEEELKPLEEVLNLAQSKNFHLRPRDLISNINVIVLELKGSETTFMCEYADETATIVEFLNRWITFVQSIISTLTGSGS[human IgG1 Fc with changes left out here]
notes: I28T, R38E, K43R, C125V
Kd [4]: < 0.001 nM

B10: ESE01.028 fused to human IgG1-LALA Fc (Fc fusion)
chain: APTSSSTKKTQLQLEHLLLDLQMILNGINNYKNPKLTEMLTQQFYMPKEATELKHLQCLEEELKPLEEVLNLAQSKNFHLRPRDLISNINDIVLELKGSETTFMCEYADETATIVEFLNRWITFVQSIISTLTGSGS[human IgG1 Fc with changes left out here]
notes: ESE01.019 plus V91D
Kd [5]: 21.1 nM

B11: ESE01.029 fused to human IgG1-LALA Fc (Fc fusion)
chain: APTSSSTKKTQLQLEHLLLDLQMILNGINNYKNPKLTEMLTQQFYMPKEATELKHLQCLEEELKPLEEVLNLAQSKNFHLRPRDLISNINAIVLELKGSETTFMCEYADETATIVEFLNRWITFVQSIISTLTGSGS[human IgG1 Fc with changes left out here]
notes: ESE01.019 plus V91A
Kd [4]: 1.03 nM

B12: ESE01.030 fused to human IgG1-LALA Fc (Fc fusion)
chain: APTSSSTKKTQLQLEHLLLDLQMILNGINNYKNPKLTEMLTQQFYMPKEATELKHLQCLEEELKPLEEVLNLAQSKNFHLRPRDLISNINEIVLELKGSETTFMCEYADETATIVEFLNRWITFVQSIISTLTGSGS[human IgG1 Fc with changes left out here]
notes: ESE01.019 plus V91E
Kd [4]: 1.51 nM

B13: ESE01.031 fused to human IgG1-LALA Fc (Fc fusion)
chain: APTSSSTKKTQLQLEHLLLDLQMILNGINNYKNPKLTEMLTQQFYMPKEATELKHLQCLEEELKPLEEVLNLAQSKNFHLRPRDLISNINVTVLELKGSETTFMCEYADETATIVEFLNRWITFVQSIISTLTGSGS[human IgG1 Fc with changes left out here]
notes: ESE01.019 plus I92T
Kd [4]: 1.26 nM

B14: ESE01.033 fused to human IgG1-LALA Fc (Fc fusion)
chain: APTSSSTKKTQLQLEHLLLDLQMILNGINNYKNPKLTEMLTQQFYMPKEATELKHLQCLEEELKPLEEVLNLAQSKNFHLRPRDLISDINAIVLELKGSETTFMCEYADETATIVEFLNRWITFVQSIISTLTGSGS[human IgG1 Fc with changes left out here]
notes: ESE01.019 plus N88D, V91A
Kd [5]: 20.6 nM

B15: ESE01.034 fused to human IgG1-LALA Fc (Fc fusion)
chain: APTSSSTKKTQLQLEHLLLDLQMILNGINNYKNPKLTEMLTQQFYMPKEATELKHLQCLEEELKPLEEVLNLAQSKNFHLRPRDLISDINEIVLELKGSETTFMCEYADETATIVEFLNRWITFVQSIISTLTGSGS[human IgG1 Fc with changes left out here]
notes: ESE01.019 plus N88D, V91E
Kd [5]: 35.6 nM

B16: ESE01.035 fused to human IgG1-LALA Fc (Fc fusion)
chain: APTSSSTKKTQLQLEHLLLDLQMILNGINNYKNPKLTEMLTQQFYMPKEATELKHLQCLEEELKPLEEVLNLAQSKNFHLRPRDLISNINDTVLELKGSETTFMCEYADETATIVEFLNRWITFVQSIISTLTGSGS[human IgG1 Fc with changes left out here]
notes: ESE01.019 plus V91D, I92T
Kd [5]: 39 nM

B17: ESE01.036 fused to human IgG1-LALA Fc (Fc fusion)
chain: APTSSSTKKTQLQLEHLLLDLQMILNGINNYKNPKLTEMLTQQFYMPKEATELKHLQCLEEELKPLEEVLNLAQSKNFHLRPRDLISNINATVLELKGSETTFMCEYADETATIVEFLNRWITFVQSIISTLTGSGS[human IgG1 Fc with changes left out here]
notes: ESE01.019 plus V91A, I92T
Kd [5]: 6.5 nM

B18: ESE01.037 fused to human IgG1-LALA Fc (Fc fusion)
chain: APTSSSTKKTQLQLEHLLLDLQMILNGINNYKNPKLTEMLTQQFYMPKEATELKHLQCLEEELKPLEEVLNLAQSKNFHLRPRDLISNINETVLELKGSETTFMCEYADETATIVEFLNRWITFVQSIISTLTGSGS[human IgG1 Fc with changes left out here]
notes: ESE01.019 plus V91E, I92T
Kd [5]: 17.3 nM

B19: ESE01.042 fused to human IgG1-LALA Fc (Fc fusion)
chain: APTSSSTKKTQLQLEHLLLDLQMILNGINNYKNPKLTEMLTQQFYMPKKATELKHLQCLEEELKPLEEVLNLAQSKNFHLRPRDLISNINVIVLELKGSETTFMCEYADETATIVEFLNRWITFVQSIISTLTGSGS[human IgG1 Fc with changes left out here]
Kd [4]: < 0.001 nM

B20: IL2-3X (ESE01.004) fused to human IgG1-LALA Fc (Fc fusion)
chain: APTSSSTKKTQLQLEHLLLDLQMILNGINNYKNPKLTDMLTFEFYMPKKATELKHLQCLERELKPLEEVLNLAQSKNFHLRPRDLISNINVIVLELKGSETTFMCEYADETATIVEFLNRWITFVQSIISTLTGSGS[human IgG1 Fc with changes left out here]
notes: R38D, K43E, E61R and C125V
binding result [3]: no binding | Kd [4]: 0.0317 nM
